Test results from PubChem BioAssay AID886 (National Center for Advancing Translational Sciences (NCATS), 2007).
The whole screen tested about 73,000 compounds, of which about 2,500 (3.4%) were called active. This list was built around the results that the source calls inconclusive (neither active nor inactive); the mix of calls is not that of the screen. Calls follow the shape of the dose curve; as a rule, active = well fitted inhibition curve with a large enough effect; inconclusive = small, poorly fitted or top-dose-only effect; inactive = no such curve, though single readings can be large or run the other way. A potency beside an inconclusive call is a rough fit, not a confirmed value.

These compounds were tested against 3-hydroxyacyl-CoA dehydrogenase type-2 (Homo sapiens) (UniProt Q99714) (assay: qHTS Assay for Inhibitors of HADH2 (Hydroxyacyl-Coenzyme A Dehydrogenase, Type II)). Settings: recombinant HADH2, NADH fluorescence, beta-hydroxybutyryl-CoA; activity change, negative = inhibition: at 57.1 µM (top of the series).
How it was run: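 His-tagged recombinant enzyme from E. coli, 20 nM, preincubated 15 min RT with compound; reaction started with 1 mM NAD+ and 90 uM beta-hydroxybutyryl-CoA in 100 mM Tris-HCl pH 9.0. NADH fluorescence (ex 360/em 450) read over 4 min; last-minus-first difference.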
% is scaled to controls: 0 for no effect and ±100 for the full control effect; potency is read from the fitted curve at half-maximal effect; tags tell the direction and shape of the fitted curve.
Also: nearly all actives have a fitted effect of over 60% in size.

Chain of UniProt Q99714 (Q99714 whole entry, looked up): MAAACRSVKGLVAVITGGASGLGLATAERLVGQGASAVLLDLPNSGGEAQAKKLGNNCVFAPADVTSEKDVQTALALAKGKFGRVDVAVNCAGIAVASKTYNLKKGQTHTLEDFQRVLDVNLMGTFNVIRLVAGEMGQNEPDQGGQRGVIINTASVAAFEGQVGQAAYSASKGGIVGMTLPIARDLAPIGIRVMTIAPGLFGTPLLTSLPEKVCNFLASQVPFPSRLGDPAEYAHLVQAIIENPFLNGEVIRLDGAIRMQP
Chain of UniProt Q99714 (Q99714 whole entry, looked up): as above

Row | SMILES | Potency | activity change, negative = inhibition
1 | CCN1C(=O)c2ccccc2S(=O)(=O)c2ccc(C(=O)NCc3cccnc3)cc21 | inactive | –
2 | CCOC(=O)c1cccc(C(=O)OCC)n1 | inactive | –
3 | FC(F)(F)c1ccc(N2CCN(c3ncnc4c3nnn4Cc3ccccc3)CC2)nc1 | inconclusive: 39.8 µM [inhibitor, single point] | –
4 | CCOC(=O)c1oc2ccccc2c1NC(=O)c1cccc(OC)c1OC | inconclusive: 31.6 µM [inhibitor, single point] | –
5 | Cc1nc2cc(-c3cccc(F)c3)nn2c(C)c1CCC(=O)NC(C)CCc1ccco1 (configuration not stated) | inconclusive: 39.8 µM [inhibitor, single point] | –
6 | Cc1nc2c(c(=O)n1CCC1=CCCCC1)c1nc3ccccc3nc1n2/N=C/c1ccco1 | inactive | –
7 | O=S(=O)(c1ccccc1)N1CCC[C@@]2(CCN(C(c3ccccc3)c3ccccc3)C2)C1 | inactive | –
8 | N=C(N)C(N=Nc1ccccc1)C(=N)N (configuration not stated) | – | inactive: -1.99% [at 11.4 µM]
9 | Cc1ccc(S(=O)(=O)NCc2cccc([N+](=O)[O-])c2)cc1 | – | inactive: 0.767% [at 11.4 µM]
10 | COCCCNC(=O)CSC1=Nc2ccccc2C2=NC(CC(=O)NCc3ccccc3)C(=O)N12 (configuration not stated) | active: 25.1 µM | –
11 | O=c1c[n+]([O-])c2ccccc2n1OCc1ccccn1 | inconclusive: 20 µM [inhibitor, partial curve] | –
12 | COc1ccccc1OCc1nc(Cc2ccc(Cl)cc2)no1 | inactive | –
13 | CCOc1cccc(C(=O)Nc2nnc(-c3ccco3)s2)c1 | inconclusive: 39.8 µM [inhibitor, single point] | –
14 | CCCCn1c(SCC(=O)Nc2ccc(OC)cc2)nc2ccc(N3CCOCC3)cc2c1=O | inconclusive: 3.98 µM [inhibitor, single point] | –
15 | Cn1c(NC(=O)c2ccccc2NC(=O)C(C)(C)C)nc2ccccc21 | inconclusive: 31.6 µM [inhibitor, single point] | –
16 | COC(=O)CCSCC(=O)Nc1nnc(C)s1 | inconclusive: 31.6 µM [inhibitor, single point] | –
17 | Cc1cccc(-n2c(O)c(C=NCCCN3CCOCC3)c3ccccc3c2=O)c1 | inconclusive: 1.58 µM [inhibitor, partial curve] | –
18 | c1ccc2c3c(cc(N4CCOCC4)c2c1)OC1(N2CCOCC2)CCCCC1O3 (configuration not stated) | inactive | –
19 | CC(NC(=O)c1ccccc1O)c1ccccc1 (configuration not stated) | active: 3.16 µM | –
20 | N#Cc1c2n(c3c(=O)n(Cc4ccccc4Cl)cnc13)CCCC2 | inactive | –
21 | CCCCc1cc(=O)oc2cc(OCC(=O)N(CC)CC)ccc12 | inconclusive: 39.8 µM [inhibitor, single point] | –
22 | O=S1(=O)C=C(Sc2nnc(-c3ccccc3)o2)c2ccccc21 | inconclusive: 0.158 µM [inhibitor, full curve, poor fit] | –
23 | COc1cc(/C=C(\C#N)C(N)=O)cc(CSc2nc3ccccc3s2)c1O | active: 12.6 µM | –
24 | CCOC(=O)C1CCN(c2ncnc3c2oc2ccc(Cl)cc23)CC1 | inconclusive: 39.8 µM [inhibitor, single point] | –

Row | SMILES | Potency | activity change, negative = inhibition
25 | COc1ccc(-c2nc(C#N)c(NCCN(C)C)o2)cc1 | active: 25.1 µM | –
26 | Cc1ccc(C2C(C#N)=C(N)Oc3n[nH]c(-c4cccs4)c32)s1 (configuration not stated) | inconclusive: 15.8 µM [inhibitor, partial curve] | –
27 | CCNc1ncc2nc(C)c(=O)n(CCOC)c2n1 | inconclusive: 5.01 µM [inhibitor, full curve] | –
28 | Cc1[nH]n2c(=O)cc(C(C)(C)C)nc2c1-c1ccccc1 | inconclusive: 31.6 µM [inhibitor, single point] | –
29 | Oc1cc(CN2COc3ccccc32)c(O)cc1CNC1CCCCC1 | active: 1.58 µM | –
30 | CCOC(=O)c1c(N)sc2c1CCCC2 | active: 12.6 µM | –
31 | COc1cccc(Cn2nnc(C(=O)Nc3cc(C)ccc3OC)c2N)c1 | inconclusive: 6.31 µM [inhibitor, single point] | –
32 | O=C(CCCn1c(=S)[nH]c2ccc(Br)cc2c1=O)N1CCN(c2ccccn2)CC1 | inconclusive: 31.6 µM [inhibitor, single point] | –
33 | CO/N=C(\C(=O)N[C@@H]1C(=O)N2C(C(=O)O)=C(COC(N)=O)CS[C@H]12)c1ccco1 | inconclusive: 20 µM [inhibitor, single point] | –
34 | Cc1nc(SCc2c(F)cccc2Cl)c2c(=O)n(C)c(=O)n(C)c2n1 | inconclusive: 31.6 µM [inhibitor, partial curve] | –
35 | O=c1cc(-c2ccc(O)c(O)c2)oc2cc(O[C@@H]3O[C@@H](CO)[C@@H](O)[C@@H](O)[C@H]3O)cc(O)c12 | inconclusive: 10 µM [inhibitor, full curve, poor fit] | –
36 | COc1ccccc1-n1nc(C(=O)NCc2ccco2)c2ccccc2c1=O | inactive | –
37 | O=S(=O)(c1ccc(Cl)s1)N1CCN(c2ncccn2)CC1 | inactive | –
38 | COc1ccc(C2=CC(c3ccc(F)cc3)n3nnnc3N2)cc1 (configuration not stated) | inconclusive: 1.26 µM [inhibitor, single point] | –
39 | COc1ccccc1N1CCN(CCCCNS(=O)(=O)c2cccc3c(N(C)C)cccc23)CC1 | inconclusive: 31.6 µM [inhibitor, single point] | –
40 | Cn1c(NC(=O)c2cccc(Cn3cc(Cl)cn3)c2)nc2ccccc21 | active: 25.1 µM | –
41 | Cc1cc(C)c2c(n1)sc1c(O)cc(=O)[nH]c12 | active: 31.6 µM | –
42 | CC(C)(CNC(=O)C1CCCC1)CNC(=O)C1CCCC1 | inconclusive: 31.6 µM [inhibitor, single point] | –
43 | CCOC(=O)C1=C(O)C(=O)N(c2ccc(S(N)(=O)=O)cc2)C1c1ccc(OC)cc1 (configuration not stated) | inconclusive: 25.1 µM [inhibitor, single point] | –
44 | CCOC(=O)c1ccc2[nH]c(C)cc(=O)c2c1 | active: 31.6 µM | –
45 | CN1C(=O)CC(C(=O)O)SC1=Nc1cccc(C(F)(F)F)c1 (configuration not stated) | inconclusive: 39.8 µM [inhibitor, single point] | –
46 | O=C(CN1CCN(c2ccccn2)CC1)NCCc1ccccc1 | inactive | –
47 | CC(=C1C2C=CC1C1C(=O)NC(=O)C21)c1ccccc1 (configuration not stated) | inconclusive: 31.6 µM [inhibitor, single point] | –
